# Where “and” joins values, the source holds several entries; their conditions need not be identical. Equal entries are not always repeated. The shares of active, inactive and inconclusive entries below differ from those in the screen. Where the call is inconclusive, the potency comes from a doubtful curve fit. Calls of active or inactive are those of the source. The call rests on the fitted dose curve; in most records, active means well fitted inhibition curve with a large enough effect; inconclusive means small, poorly fitted or top-dose-only effect; inactive means flat fitted curve, though single readings scatter.
# Tested on: MCC-26
# Assay: qHTS assay to identify novel small-molecules to repurpose for Merkel cell carcinoma treatment (AID 1296009); further: nearly all actives have a fitted effect of over 60% in size
# Conditions: MCC and control cell lines, CellTiter-Glo viability, 72 h; series mostly up to 46 µM
# Method in brief: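 CellTiter-Glo luminescence after 72 hr compound exposure at 37 degree celsius gave cell viability. Libraries NPC and MIPE were run as 8- and 11-point dose responses; RLUs normalized to DMSO (negative) and no-cell (cytotoxicity) controls.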
# Potency means the concentration at half of the fitted maximal effect; tags describe the fitted curve by direction and shape.
row,Compound,Potency
1,S=c1nc[nH]c2nc[nH]c12,"inconclusive: 16.6 µM [inhibitor, single point]"
2,O=C(O)C=Cc1ccc(Cn2ccnc2)cc1,inactive
3,COc1cc(C(=O)NC2CCN(C)CC2)ccc1Nc1ncc2c(n1)N(C1CCCC1)CCC(=O)N2C(C)C,"inconclusive: 16.6 µM [inhibitor, partial curve]"
4,Nc1nc2[nH]cc(CCc3ccc(C(=O)N[C@@H](CCC(=O)O)C(=O)O)cc3)c2c(=O)[nH]1,"inconclusive: 1.66 µM [inhibitor, full curve, poor fit]"
5,CN(C)C(=O)C(CCN1CCC(O)(c2ccc(Cl)cc2)CC1)(c1ccccc1)c1ccccc1,"inconclusive: 33.5 µM [inhibitor, single point]"
6,COc1cc(N2CCC(N3CCN(C)CC3)CC2)ccc1Nc1ncnc(Nc2ccccc2S(=O)(=O)C(C)C)n1,active: 11.8 µM
7,CCCOc1ccc2nc(NC(=O)OC)[nH]c2c1,"inconclusive: 168 nM [inhibitor, full curve] and inconclusive: 264 nM [inhibitor, full curve]"
8,CS(=O)(=O)N1CCN(Cc2cc3nc(-c4cccc5[nH]ncc45)nc(N4CCOCC4)c3s2)CC1,"inconclusive: 1.48 µM [inhibitor, full curve]"
9,CN(C[C@@H]1COCCO1)S(=O)(=O)Nc1ccc2ccc3ncc(-c4cnn(C)c4)cc3c(=O)c2c1,"inconclusive: 3.32 µM [inhibitor, full curve]"
10,CCNc1cc(NC2CCC(O)CC2)nc(Nc2ccc3c(ccn3Cc3ccccc3)c2)n1 (stereo unspecified),inactive
11,CO[C@H]1C[C@@H]2CC[C@@H](C)[C@@](O)(O2)C(=O)C(=O)N2CCCC[C@@H]2C(=O)O[C@H]([C@H](C)C[C@@H]2CC[C@H](OP(C)(C)=O)[C@H](OC)C2)CC(=O)[C@H](C)C=C(C)[C@@H](O)[C@@H](OC)C(=O)[C@H](C)C[C@H](C)C=CC=CC=C1C,inactive
12,N=C(N=C(N)N)N1CCOCC1,inactive
13,COc1c(N2CCNC(C)C2)c(F)cc2c(=O)c(C(=O)O)cn(C3CC3)c12 (stereo unspecified),inactive
14,CCOc1ccc(Nc2nc(-c3c(C)nc4ccccn34)cs2)cc1,active: 0.0526 µM
15,NC1=N[C@@]2(c3cc(NC(=O)c4ccc(F)cn4)ccc3F)COC[C@@H]2CS1,inactive
16,NC(=O)OCC(COC(N)=O)c1ccccc1,inactive
17,Cc1ccc(C(C)(O)c2nc3ccccc3s2)c(C)c1 (stereo unspecified),inactive
18,Cc1cc(C2CCCCC2)n(O)c(=O)c1,"inconclusive: 20.9 µM [inhibitor, partial curve]"

row,Compound,Potency
1,Cc1cccc2c1CC[C@H](CN1CCC(c3c(Cl)cccc3Cl)CC1)C[C@@H]2O,inactive
2,Cc1cc(C(=O)N2CCN(c3cccc(Cl)c3)CC2)n(-c2ccccc2)n1,"inconclusive: 3.32 µM [inhibitor, full curve]"
3,COc1cc([C@@H]2c3cc4c(cc3[C@H](O)[C@H]3COC(=O)[C@@H]23)OCO4)cc(OC)c1OC,"inconclusive: 1.18 µM [inhibitor, full curve]"
4,CCNC(=O)c1cc2c(-c3cc(OCCN4CCCC4)c(Cl)cc3Cl)nc(N)nc2s1,"inconclusive: 2.64 µM [inhibitor, full curve]"
5,CCNC(=O)Nc1ccc2ncc(Nc3ccc(C)cc3)nc2n1,"inconclusive: 2.35 µM [inhibitor, full curve]"
6,OCCCNc1cc(-c2ccnc(Nc3cccc(Cl)c3)n2)ccn1,"inconclusive: 0.148 µM [inhibitor, full curve]"
7,C#C[C@]1(O)CC[C@H]2[C@H]3CCc4cc(OC)ccc4[C@H]3CC[C@@]21C,inactive
8,O=c1[nH]c(=O)n([C@H]2C[C@@H](O)[C@@H](CO)O2)cc1F,"inconclusive: 23.5 µM [inhibitor, partial curve]"
9,O=C(NC1CC1)c1cccc(-c2ccc3c(NC(=O)C4CC4)n[nH]c3c2)c1,"inconclusive: 20.9 µM [inhibitor, single point]"
10,CN(CCOc1ccc(CC2SC(=O)NC2=O)cc1)c1ccccn1 (stereo unspecified),inactive
11,Oc1ccc(-c2ccc(-c3cc(Nc4cccc(CNC5CC5)c4)n[nH]3)cc2)c(O)c1,"inconclusive: 33.2 µM [inhibitor, single point]"
12,CN(C)C(=O)[C@H](O)[C@H](Cc1ccccc1)NC(=O)c1cc2cc(Cl)ccc2[nH]1,"inconclusive: 7.43 µM [inhibitor, full curve, poor fit]"
13,COc1cc([C@@H]2c3cc4c(cc3[C@H](O)[C@H]3COC(=O)[C@H]23)OCO4)cc(OC)c1OC,"inconclusive: 84.1 nM [inhibitor, full curve] and inconclusive: 5.3 nM [inhibitor, full curve]"
14,CCCCCCCCCCCCCC(=O)N[C@H](CO)[C@H](O)c1ccc([N+](=O)[O-])cc1,inactive
15,CN(C)Cc1cccc(N=C(c2ccccc2)c2c(O)[nH]c3cc(C(=O)N(C)C)ccc23)c1,"inconclusive: 18.7 µM [inhibitor, single point]"
16,Cc1cccc(-c2[nH]c(C(C)(C)C)nc2-c2ccc3nccnc3c2)n1,"inconclusive: 7.43 µM [inhibitor, partial curve]"
17,CC(C)n1nc(-c2ccc3oc(N)nc3c2)c2c(N)ncnc21,"inconclusive: 0.0469 µM [inhibitor, full curve]"
18,COc1cc(N2CCC(N3CCN(C)CC3)CC2)ccc1Nc1ncc(Cl)c(Nc2ccccc2S(=O)(=O)C(C)C)n1,active: 5.9 µM
